# Data from the BET-seq Pho4 binding data (Le et al. 2018).
# Some of the results follow. Values were computed here from the reads of four pooled replicates and scatter widely.
# Target: T1, Pho4 (S. cerevisiae) (UniProt P07270)
# T1 sequence: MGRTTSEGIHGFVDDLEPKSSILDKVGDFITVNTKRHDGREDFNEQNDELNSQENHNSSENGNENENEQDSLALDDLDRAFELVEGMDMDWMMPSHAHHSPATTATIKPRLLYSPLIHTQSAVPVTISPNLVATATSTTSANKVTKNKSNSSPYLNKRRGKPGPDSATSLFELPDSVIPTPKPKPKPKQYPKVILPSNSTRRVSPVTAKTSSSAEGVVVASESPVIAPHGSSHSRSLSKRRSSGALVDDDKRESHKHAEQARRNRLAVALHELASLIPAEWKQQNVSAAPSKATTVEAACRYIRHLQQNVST
# Test: relative binding free energy (BET-seq); higher = weaker binding
# Settings: reference: library average
row,Sequence,relative binding free energy [kcal/mol]
1,ATTATCACGTGAGGGT,0.32
2,GGCGCCACGTGGGTGT,-0.13
3,GATGGCACGTGAGGCT,0.09
4,GATATCACGTGGGCTT,0.06
5,GGAGGCACGTGAGACT,0.28
6,TCTTACACGTGCGTGG,0.23
7,TCGGGCACGTGTGAAG,0.04
8,TCTAGCACGTGTGGAG,0.14
9,CGTTTCACGTGGTAGT,0.23
10,GAAAGCACGTGTATGG,0.16
11,CGTGACACGTGAGGTG,0.08
12,AGTTTCACGTGGTAAA,0.38
13,AGAAGCACGTGGGTGC,-0.25
14,GTGCACACGTGTTCGG,0.19
15,ATTGACACGTGATTTG,0.01
16,GGAGTCACGTGATTAG,0.19
17,ATCGGCACGTGGGAAG,-0.24
18,GTTTACACGTGAAATG,0.31
19,TAGGTCACGTGGGCTG,-0.01
20,CGTAACACGTGGGAAG,0.06
21,GTGTACACGTGGAGGC,-0.1
22,AAAATCACGTGAAGTT,0.49
23,GTTTGCACGTGGATTA,0.13

row,Sequence,relative binding free energy [kcal/mol]
1,TGTCGCACGTGATTGA,0
2,TACGACACGTGATGGG,0.22
3,TGTCGCACGTGGTGCT,-0.19
4,GGAGTCACGTGGTTGT,0.11
5,TAGCGCACGTGAGAGT,0.11
6,TTTATCACGTGAATTC,0.38
7,TCGTACACGTGAGGTG,0.23
8,AATTTCACGTGATGTT,0.34
9,GGTATCACGTGCGGCT,0.18
10,TTGCGCACGTGTTGCT,-0.11
11,AATGACACGTGGATGT,-0.07
12,TTCCGCACGTGAGAGT,0.32
13,ATAAGCACGTGGAATG,-0.05
14,TAGGTCACGTGGTGCC,0.07
15,TAAGACACGTGTATGG,-0.03
16,AAAATCACGTGGTTGT,-0.1
17,TGTTTCACGTGAAATG,0.54
18,GTTGTCACGTGATTGC,0.32
19,CTATTCACGTGGAGGG,0.13
20,GTATGCACGTGTACTT,0.08
21,GTGTCCACGTGAGGTC,0.32
22,CTATGCACGTGAGTTG,0.21
23,ATATACACGTGGTGGG,-0.09

row,Sequence,relative binding free energy [kcal/mol]
1,ATTTGCACGTGGTTCG,0.04
2,TGAGCCACGTGGTAAG,-0.05
3,TGCGTCACGTGGAAGT,0.12
4,AATTGCACGTGGCGGT,-0.12
5,TATTTCACGTGTATCG,0.15
6,ACAAGCACGTGGGGGG,-0.27
7,TGGGGCACGTGGTCTG,-0.11
8,AAATACACGTGATTTT,0.23
9,TAAGTCACGTGTGCGG,0.09
10,GTTAGCACGTGTGGCG,0.15
11,AGGGGCACGTGAGCGC,-0.01
12,TGAGGCACGTGCTGGA,-0.17
13,GTAAGCACGTGGTATG,-0.15
14,CGAGACACGTGTGGGC,0.05
15,TTGGTCACGTGTGCCG,-0.01
16,CTAGGCACGTGTGCGT,-0.24
17,TGTGGCACGTGAGGAT,0.13
18,TAGGTCACGTGTCAGA,0.28
19,TAATTCACGTGCATGT,0.17
20,AGTTTCACGTGAACGT,0.36
21,GGGTTCACGTGCAATG,0.27
22,GAAGTCACGTGGAGGG,0.07
23,TGGTTCACGTGGCCGG,0.19

row,Sequence,relative binding free energy [kcal/mol]
1,TGATGCACGTGAGCGA,0.2
2,TTCGGCACGTGCAGGT,-0.01
3,GGTGGCACGTGATGTA,0.11
4,AAGATCACGTGATGGG,0.22
5,GTGTTCACGTGGCTAA,0.17
6,AATTGCACGTGTATGT,-0.03
7,GTAGTCACGTGGAATT,0.2
8,GGTTGCACGTGCCGTT,0.03
9,CATGTCACGTGAAATG,0.31
10,TAGATCACGTGTGTTA,0.16
11,TGCTGCACGTGGTCGT,-0.11
12,ATGCGCACGTGGGTGA,-0.43
13,GGTTGCACGTGGATAG,0.07
14,GTGGCCACGTGTTGTT,0
15,TTATTCACGTGGAATA,0.36
16,AATGACACGTGTTTAG,0.03
17,ATGGTCACGTGCGTGC,-0.01
18,GTTTCCACGTGAGGGA,0.26
19,GGGTGCACGTGGGAAG,0
20,GTTATCACGTGAAGCT,0.45
21,GCCGTCACGTGGTGGT,0.08
22,TAATACACGTGGGATT,0.11
23,CGGGGCACGTGCTGGG,-0.22

row,Sequence,relative binding free energy [kcal/mol]
1,TAAAACACGTGGTGGA,-0.06
2,TTGTGCACGTGTTGTG,0.01
3,TTTTGCACGTGTTAGA,0.12
4,CGTTTCACGTGTTAGT,0.26
5,TTCTACACGTGGAATG,0.26
6,TGTGGCACGTGAAGAT,0.1
7,TTGTTCACGTGGGACG,0.21
8,GTTTTCACGTGGTGTA,0.26
9,TGGGGCACGTGTATGC,-0.1
10,GTCGTCACGTGCGGGA,0.23
11,GGAGTCACGTGGTGGT,0.13
12,TATTTCACGTGGTATC,0.13
13,GGCGTCACGTGAATGT,0.34
14,GAGTGCACGTGGTTAC,0.05
15,TTCGGCACGTGGTAGG,-0.2
16,AGGGGCACGTGGGTTG,-0.2
17,AGTGACACGTGTGTGA,-0.05
18,AGTTTCACGTGTTGTG,0.15
19,GGCTTCACGTGAGGAG,0.34
20,GTGGGCACGTGGAGAT,-0.03
21,GGTTGCACGTGTGGAT,0.23
22,GTGCACACGTGTGTGC,0.1
23,AATGACACGTGAGGGC,0.29
